Test results taken from patent publication US20250051434A1 (Merck Sharp & Dohme, published 2025).
Substitutions are numbered along the chain they refer to.

B1: IL-12-Fc-18 (Fc fusion)
chain 1: TPDPGMFPCLHHSQNLLRAVSNMLQKARQTLEFYPCTSEEIDHEDITKDKTSTVEACLPLELTKNESCLNSRETSFITNGSCLASRKTSFMMALCLSSIYEDLKMYQVEFKTMNAKLLMDPKRQIFLDQNMLAVIDELMQALNFNSETVPQKSSLEEPDFSKTKIKLCILLHAFRIRAVTIDRVMSYLNASGGGGSGGGGSGGGGS[skipping human IgG1 Fc with L234A L235A D265S S354C T366W (EU numbers)]
chain 2: IWELKKDVYVVELDWYPDAPGEMVVLTCDTPEEDGITWTLDQSSEVLGSGKTLTIQVKEFGDAGQYTCHKGGEVLSHSLLLLHKKEDGIWSTDILKDQKEPKNKTFLRCEAKNYSGRFTCWWLTTISTDLTFSVKSSRGSSDPQGVTCGAATLSAERVRGDNKEYEYSVECQEDSACPAAEESLPIEVMVDAVHKLKYENYTSSFFIRDIIKPDPPKNLQLKPLKNSRQVEVSWEYPDTWSTPHSYFSLTFCVQVQGKSKREKKDRVFTDKTSATVICRKNASISVRAQDRYYSSSWSEWASVPCSGGGGDKTHTCPPCPAPEAAGGPSVFLFPPKPKDTLMISRTPEVTCVVVSVSHEDPEVKFNWYVDGVEVHNAKTKPREEQYNSTYRVVSVLTVLHQDWLNGKEYKCKVSNKALPAPIEKTISKAKGQPREPQVCTLPPSRDELTKNQVSLSCAVKGFYPSDIAVEWESNGQPENNYKTTPPVLDSDGSFFLVSKLTVDKSRWQQGNVFSCSVMHEALHNHYTQKSLSLSPGK
B2: IL-12-Fc-19 (Fc fusion)
chain 1: B1 chain 1 with S161T
chain 2: B1 chain 2

What was measured:
Assay in all cases: cell-based or functional assay
[1] = molecular target: T1, human IL-12 receptor (IL-12R) (human, UniProt P42701 24-662; Q99665 24-862)
[2] = molecular target: T1, human IL-12 receptor (IL-12R); remark: listed apart in the source
T1 sequence (Q99665 24-862, chain 2 of 2, other chains not shown): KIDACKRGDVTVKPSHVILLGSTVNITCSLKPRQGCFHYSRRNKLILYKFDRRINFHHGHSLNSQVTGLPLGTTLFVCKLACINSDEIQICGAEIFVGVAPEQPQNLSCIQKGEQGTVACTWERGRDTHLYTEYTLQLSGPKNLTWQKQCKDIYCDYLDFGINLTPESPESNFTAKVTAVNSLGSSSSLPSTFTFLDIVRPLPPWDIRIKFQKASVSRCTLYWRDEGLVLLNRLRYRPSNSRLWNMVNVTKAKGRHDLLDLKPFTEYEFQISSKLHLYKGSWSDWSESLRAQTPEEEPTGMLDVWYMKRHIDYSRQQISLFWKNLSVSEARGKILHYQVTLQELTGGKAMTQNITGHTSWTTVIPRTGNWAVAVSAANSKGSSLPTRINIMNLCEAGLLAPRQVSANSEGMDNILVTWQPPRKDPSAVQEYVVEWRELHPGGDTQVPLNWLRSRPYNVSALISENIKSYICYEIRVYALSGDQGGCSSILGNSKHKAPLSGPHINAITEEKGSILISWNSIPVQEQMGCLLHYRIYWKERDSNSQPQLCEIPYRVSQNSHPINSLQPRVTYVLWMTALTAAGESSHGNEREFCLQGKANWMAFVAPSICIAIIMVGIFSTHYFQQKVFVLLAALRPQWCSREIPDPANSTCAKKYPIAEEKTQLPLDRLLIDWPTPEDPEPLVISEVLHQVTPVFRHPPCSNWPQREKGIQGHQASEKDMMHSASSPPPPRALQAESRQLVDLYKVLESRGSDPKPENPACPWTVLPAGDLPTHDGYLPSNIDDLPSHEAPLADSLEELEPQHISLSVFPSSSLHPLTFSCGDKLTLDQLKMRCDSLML

[3] = molecular target: T1, human IL-12 receptor (IL-12R); remark: listed apart in the source
[4] = molecular target: rhesus monkey IL-12 receptor (rhesus monkey)

Row | Binder | HEK-Blue IL-12 cells potency assay (FIG. 4): fold potency reduction vs wild-type [1] | Mean Fold Reduction (potency vs IL-12 WT by EC50; HEK-Blue IL-12 STAT4/SEAP reporter) [2] | HEK Reporter Median EC50 values (ng/mL) (n = 3) [3] | Human PBMC Median EC50 values (ng/ml); IFNγ release from activated human PBMC in vitro (n = 8) [3] | Rhesus PBMC Median EC50 values (ng/ml); IFNγ release from activated rhesus PBMC in vitro (n = 10) [4]
1 | B1 | 30 fold | 17 fold | 35 ng/mL | 33 ng/mL | 87 ng/mL
2 | B2 | 200 fold | 49 fold | 198 ng/mL | 178 ng/mL | 365 ng/mL
